# Experimental data from the supplement of paper PMC10126150.
# Values marked as one replicate rest on one cluster of the flow cell; about a third of the high ones do not repeat.
# System: ATP
# Assay: switch fluorescence ratio, 500 uM ATP over buffer (Cy3 cluster intensity, sum of 5 cycles each) (fold (ratio)); higher = stronger signal-on switching upon ATP binding; sequences stand for … in TCGTCGGCAGCGTCAGATGTGTATAAGAGACAGTTTTTTTTTTTTTTTTTTTTTTTTT…TC
# Settings: aptamer strand: ATP DNA aptamer (quencher-CACCTGGGGGAGTATTGCGGAGGAAGG + anchor), 100 nM annealed; ATP concentration: 500 uM; one replicate
# Outline: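 Per cluster, summed Cy3 intensity from the target cycles was divided by that from the buffer cycles to give the fluorescence ratio, then averaged per switch-domain sequence. Clusters outside 100-1000 RFU were excluded. The Cy3-labelled switching-strand clusters, on a modified Illumina MiSeq flow-cell, were annealed to 100 nM quencher-labelled ATP aptamer and imaged in selection buffer, then after 15 min with 500 uM ATP at 22 °C, for five cycles with NaOH stripping and re-annealing between them.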
# 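Further: ATP exposure 15 min at 22 °C before imaging.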
row,Sequence,switch fluorescence ratio
1,TTTCGTTAGG,1.01
2,TCTTTTTCAT,0.974
3,ATTGAATAGT,0.992
4,CTGCGGAGCC,0.988
5,CTTTTAAGAA,0.994
6,TTCATCTTTG,0.98
7,CGTGGCGGCA,0.985
8,CAGATGCGCC,1.02
9,CAGTCCATTT,0.94
10,CCGCTACTTA,4.28
11,GCAGTGTAGC,0.989
12,TAGATGCAAG,0.946
13,TTGCTTGGAG,1.06
14,GTTCCCCCGT,1.49
15,TACACAGGTT,1.1
16,GGTGACCGCT,0.992
17,GCGTCGTTGG,1.04
18,CAGTTCCCCC,1.04
19,TCGCAGCCTA,1.22
20,AGGGTCGGCA,1.02
21,GCTGCTTATG,0.999
22,AGGAGATGCG,1.01
23,CCCCCAGGA,1.24

row,Sequence,switch fluorescence ratio
1,TTACTGTTCC,1.04
2,AGGAAGTTAT,0.999
3,CGAATAACGG,1
4,TGTATATACC,1.05
5,TTTCAGAGGC,0.981
6,CATCTATCGT,0.995
7,GCACGAACTT,1.33
8,ATAAGGTGTT,1.13
9,CGATACACGG,0.978
10,TCCCTGGCGG,1.03
11,TATTATGCA,1.01
12,AACCGGTAT,0.992
13,ACAAAGGAAG,0.991
14,ACTTCGAGTA,1.04
15,AGCAGTTTGT,0.988
16,ATTATAATAC,1.13
17,GGATATGGTC,0.967
18,GAGGACTAGT,1.03
19,CGGTTACTAC,1.08
20,TAATATCCGC,1.13
21,GGTGTGGGAA,0.984
22,TTAATGATCG,1.07
23,AGAGCCGAGG,1.02

row,Sequence,switch fluorescence ratio
1,CGGGGGGAAT,1.05
2,AGAGCGTTAA,1.09
3,TCTGCACAGT,0.97
4,CGCTTTGATG,0.99
5,GCTTTAATAT,0.993
6,ATCAGCGGGA,1
7,TTTATGTAT,0.977
8,ACTATAAAG,1.05
9,GCGTAACGTA,0.999
10,AGGACTGTAG,1.02
11,GGAACGCTTT,1.05
12,ACAATGTACT,1.11
13,ATATGGGTAG,0.967
14,TGCCAGAAGT,0.985
15,ACGGCCGATC,0.959
16,CATTAAGAGA,0.966
17,AAGTCAATTT,0.967
18,GACTGTTAGA,0.975
19,GTAAGTAGCA,0.972
20,TTGTCGCCCG,0.954
21,TCAAAAAGTC,0.977
22,GCTGCCGGAT,1.11
23,AAGTTTTTAG,0.995

row,Sequence,switch fluorescence ratio
1,GTAATCGAAT,0.996
2,TCCGTGTCAT,1.02
3,GGTTATACGT,0.997
4,CATCTTGTTC,1
5,CTAGTTCCGT,0.992
6,TGATGTTTG,1.02
7,CCTGTTTACC,1.06
8,TCAGAAGTGT,1.01
9,GTAGCAGGTG,2.93
10,TGGTAGGGCT,1.02
11,CCTTATCGCT,1.28
12,TCTGATTCCT,1.03
13,AAATTCGCTT,1
14,CGCGTGTGAA,1
15,TGCCAGTCCC,1.07
16,GTGTTTTTAT,0.998
17,TTCAGGACAA,1.01
18,GACAGTATAT,1.08
19,GTATATTGTT,0.936
20,CAGGGGCCGT,1
21,GTGGTACCAT,0.997
22,GTCGGGTTGG,1.01
23,TCTTTTTCG,0.987

row,Sequence,switch fluorescence ratio
1,AACTGCCCAT,1.04
2,CGGGGCTGCG,0.993
3,CGGGAGCCGA,0.989
4,CCTAAGATTC,1.05
5,ACGTTTACGT,1
6,TAAAATTCCT,1.12
7,GACTAGGAG,1.06
8,CATTATGAAT,0.993
9,TTGACATACG,1.12
10,GCCCCGAAAG,1.03
11,TGGGGCGGCC,0.99
12,TGTCCTGTGA,1.02
13,AGCTTCTGAA,1.04
14,TGAATGCCTA,0.952
15,CAGGGCGCTT,0.985
16,CGCGTGAGGG,1.03
17,TACTGAATCT,1.05
18,GTATGATAGA,1.04
19,AGCTTGGAAC,1.02
20,TACGAGATAG,1.2
21,GATTTACCGT,1.02
22,TAGACTTTGT,0.996
23,TGCGTTGGG,1.03

row,Sequence,switch fluorescence ratio
1,ATAAAAGTGG,1
2,CAACCTTTTA,1.02
3,CACGTTAAGT,1.14
4,TGCAACATGC,1.05
5,TAGGTCGGAT,1.03
6,CGAGAGCGCC,1.1
7,TACCAAAAGC,1.03
8,CCGACCTATG,1.16
9,GCCCCGTCCT,1.01
10,GGGAAGCCTG,1.01
11,GTGTGGGCA,1.01
12,TTATTCTTGG,0.999
13,TCGCGATTGG,1.1
14,TGATCCCGAG,0.999
15,CCCGGGAATA,1.02
16,TTTATACTTA,1.05
17,CTAAGTAATC,1.44
18,GACCGGGGGG,1.06
19,GCCATCACAT,1.01
20,GATACACACG,1.56
21,CTTATAGTTC,1.03
22,TTACCCGAGG,1.04
23,TCTGGTAAAT,1.02

row,Sequence,switch fluorescence ratio
1,GCCGTAAGTT,1.03
2,CAGTAGAGTG,0.989
3,GGATAAATTG,1.02
4,AGTAGCTGAT,1
5,ATGCCTACT,1.02
6,CCGATCTAAG,1.07
7,AGGCAACGCG,0.985
8,GGCGAATAGA,1.04
9,ATTCCATTTA,0.978
10,CGGGACGAGG,1
11,TAAAACTAAT,0.95
12,GACGTCAATA,1.2
13,TGTCCTTTAC,1.03
14,TCGAAGAGTC,0.984
15,CGAGGTAATA,3.81
16,CATGGACTAC,1.06
17,CTTATTAAAA,0.988
18,GGCTGATATA,1.02
19,CCCATGAGGG,0.989
